# Assay results from the supplement of paper PMC12217912.
# The other results are listed elsewhere or left out. The full chains were built here from the parent and the listed change. Inactive controls read about 0.05.
# B1: TEV protease; numbered along this chain (parent)
# chain: MGESLFKGPRDYNPISSSICHLTNESDGHTTSLYGIGFGPFIITNKHLFRRNNGTLVVQSLHGVFKVKDTTTLQQHLVDGRDMIIIRMPKDFPPFPQKLKFREPQREERICLVTTNFQTKSMSSMVSDTSCTFPSGDGIFWKHWIQTKDGQCGSPLVSTRDGFIVGIHSASNFTNTNNYFTSVPKNFMELLTNQEAQQWVSGWRLNADSVLWGGHKVFMVKPEEPFQPVKEATQL
# Variants of: B1
# Test: raw area under fraction-flipped curve 0-4 h after induction (AUC4h, not background-subtracted), DNA-recorder readout of cleavage of the substrate (dimensionless); higher = more cleavage of the substrate by the protease variant
# Conditions: temperature: 34 °C; time window: 0-4 h after rhamnose induction
# Description: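 In vivo DNA recorder in E. coli TOP10(DE3) ΔrhaA at 34 °C. Each TEVp single-site mutant (parent TEVp 0) is paired with a single-site variant of the 7-mer TEVs (canonical ENLYFQ|S). The substrate sits between flexible linkers in a Bxb1-sfGFP-TEVs-SsrA fusion, so cleavage stabilises Bxb1 and speeds flipping of a recombination array, read by NGS. The value is the raw area under the fraction-flipped curve over 0-4 h after rhamnose induction (AUC4h), with ≥20 reads per time point. It is not background-subtracted; inactive controls average about 0.047.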
# 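Note: Bxb1 expression induced with 0.2% (w/v) L-rhamnose at OD600 near 0.5, cultures sampled hourly, flipped fraction per protease–substrate barcode pair counted by paired-end Illumina sequencing.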
Variant,area with substrate ENAYFQS,area with substrate ENCYFQS,area with substrate ENDYFQS,area with substrate ENEYFQS,area with substrate ENFYFQS,area with substrate ENGYFQS,area with substrate ENHYFQS,area with substrate ENIYFQS,area with substrate ENKYFQS,area with substrate ENMYFQS,area with substrate ENNYFQS,area with substrate ENPYFQS,area with substrate ENQYFQS,area with substrate ENRYFQS,area with substrate ENSYFQS,area with substrate ENTYFQS,area with substrate ENVYFQS,area with substrate ENYYFQS,area with substrate ENWYFQS
S4L,0.056,0.0685,0.0623,0.0624,0.0575,0.0666,0.0639,0.0671,0.0479,0.0728,0.0636,0.0625,0.0613,0.0544,0.0641,0.069,0.0647,0.0602,
D11E,0.0583,0.0713,0.0565,0.0879,0.0595,,0.0628,0.127,0.0623,0.0781,0.0643,0.0698,0.0605,0.0592,0.0694,0.0727,0.0775,0.0576,0.0499
I19G,0.0603,0.0504,0.0471,0.0547,0.078,0.0564,0.0499,,0.0539,0.0239,0.0513,0.0658,0.0558,0.0443,0.0572,,0.0567,,0.0038
Y12Q,0.035,0.0587,0.062,0.0601,0.0519,,0.0719,0.127,0.09,0.084,0.0633,0.0702,0.0627,0.0552,0.0596,0.0754,0.0828,,
Y12V,0.0598,0.0566,0.0649,0.0651,,0.0584,,0.0935,0.0569,,0.0612,,0.0612,0.0532,0.061,0.0668,0.083,0.0696,
Y12I,0.0462,0.066,0.0596,0.0655,,0.0817,0.0627,0.0982,0.0622,0.0904,0.0511,0.0595,0.0545,0.0529,0.0634,0.0596,0.0702,0.0605,0.0688
Y12A,0.0568,0.0621,0.0664,0.0547,0.0595,0.0796,0.0909,0.129,0.0687,0.0718,0.0628,,0.0661,0.0388,0.0746,0.0568,0.0693,0.0682,0.038
H21E,0.056,0.0807,0.0577,0.0628,0.0683,0.0549,0.0614,0.0493,0.0618,0.0772,0.0474,0.0686,0.0629,0.0565,0.0624,0.0589,0.068,0.0665,0.0465
N13C,0.0654,0.0594,0.0659,0.0723,0.0485,0.0598,0.066,0.114,0.0498,0.0717,0.0538,0.0602,0.0608,0.0529,0.0713,0.0713,0.0823,0.0675,0
N13Q,0.0545,0.0715,0.0566,0.0631,0.0593,0.061,0.0597,0.116,,0.0944,0.058,0.0674,0.0551,,0.055,,0.0919,0.0563,0.0629
G8W,0.0688,0.0616,0.0534,0.0612,0.0613,0.066,,0.087,0.0587,,,,0.0618,0.0592,0.0832,0.0682,0.078,,
G8M,0.0485,0.0673,0.0563,,,,,,0.0741,,0.0581,,0.0458,0.0575,,,,,
S17C,0.101,0.0651,0.0474,0.0703,0.0601,0.0977,0.0396,0.136,0.0627,0.0536,0.0713,0.0562,0.0597,0.0556,0.0673,0.0694,0.0681,,0.0568
S17G,0.0652,0.0884,0.0596,0.0539,0.0461,0.0515,0.0576,0.113,,0.0661,0.0562,0.0537,0.0594,0.0535,0.0546,0.0691,0.0765,0.0562,
I15N,0.0555,0.0485,0.055,0.0665,0.0726,0.0652,0.0538,0.0764,0.0609,0.0719,0.0555,,0.0204,,0.0464,0.0475,0.0672,0.0527,
I15L,0.0422,0.0577,0.0575,0.0629,0.0677,0.0753,0.0607,0.0777,0.0588,0.0846,0.0395,0.0633,0.0577,0.0616,0.0684,0.0681,0.0762,0.0651,
I15F,0.0605,0.0646,0.0574,0.0623,0.0603,0.0613,,0.0946,0.0691,0.0883,0.0406,0.0463,0.0595,,0.0625,0.0641,0.0729,0.0496,
L5D,0.0691,,0.0592,0.0627,0.0514,0.0534,,,,,,,0.0626,,0.0528,,,,
E3N,0.0713,0.0452,,0.0796,0.0636,,0.0994,,,,,,0.0661,,0.144,0.0576,0.0863,,
S18T,0.0585,0.0492,,0.0251,0.0611,0.0688,,0.084,,0.0633,,0.0796,0.052,0.0535,,0.0571,,,0.0541
S18N,0.0878,0.0675,0.064,0.0638,0.0565,0.0665,0.0557,,,,,,0.0784,0.0654,0.0594,0.0593,0.0819,,0.0486
S18M,0.0692,0.0687,0.0637,0.0771,0.0482,0.0579,,0.121,,,,,0.0548,0.0671,,0.0694,0.0723,,
S16F,0.07,0.0625,0.0609,0.0597,0.0701,,,0.121,0.0685,0.0736,0.0697,0.0529,0.055,0.0564,0.0626,0.0591,,0.0746,0.0071
S16K,0.0521,0.0763,0.0655,0.0457,0.0687,0.0544,0.0533,,,0.0743,0.049,,0.0616,,0.0822,0.0595,,0.0408,
